Results on 24 compounds are retold here after paper PMC4336329 (PLoS ONE, 2015).

The campaign covered roughly 310,000 compounds. About 14,000 (4.5%) showed an effect of 50% or more. The effect is printed as a negative number. The list shows a part of the results.
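Note: peak tail current of the secondary pulse compared with the same well before compound.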

The experiment deals with human ether-à-go-go-related gene (hERG) potassium channel (human, UniProt Q12809). As to the kind of experiment: primary screen, population patch clamp on CHO cells stably expressing hERG.
human ether-à-go-go-related gene (hERG) potassium channel, sequence (Q12809 whole entry, looked up): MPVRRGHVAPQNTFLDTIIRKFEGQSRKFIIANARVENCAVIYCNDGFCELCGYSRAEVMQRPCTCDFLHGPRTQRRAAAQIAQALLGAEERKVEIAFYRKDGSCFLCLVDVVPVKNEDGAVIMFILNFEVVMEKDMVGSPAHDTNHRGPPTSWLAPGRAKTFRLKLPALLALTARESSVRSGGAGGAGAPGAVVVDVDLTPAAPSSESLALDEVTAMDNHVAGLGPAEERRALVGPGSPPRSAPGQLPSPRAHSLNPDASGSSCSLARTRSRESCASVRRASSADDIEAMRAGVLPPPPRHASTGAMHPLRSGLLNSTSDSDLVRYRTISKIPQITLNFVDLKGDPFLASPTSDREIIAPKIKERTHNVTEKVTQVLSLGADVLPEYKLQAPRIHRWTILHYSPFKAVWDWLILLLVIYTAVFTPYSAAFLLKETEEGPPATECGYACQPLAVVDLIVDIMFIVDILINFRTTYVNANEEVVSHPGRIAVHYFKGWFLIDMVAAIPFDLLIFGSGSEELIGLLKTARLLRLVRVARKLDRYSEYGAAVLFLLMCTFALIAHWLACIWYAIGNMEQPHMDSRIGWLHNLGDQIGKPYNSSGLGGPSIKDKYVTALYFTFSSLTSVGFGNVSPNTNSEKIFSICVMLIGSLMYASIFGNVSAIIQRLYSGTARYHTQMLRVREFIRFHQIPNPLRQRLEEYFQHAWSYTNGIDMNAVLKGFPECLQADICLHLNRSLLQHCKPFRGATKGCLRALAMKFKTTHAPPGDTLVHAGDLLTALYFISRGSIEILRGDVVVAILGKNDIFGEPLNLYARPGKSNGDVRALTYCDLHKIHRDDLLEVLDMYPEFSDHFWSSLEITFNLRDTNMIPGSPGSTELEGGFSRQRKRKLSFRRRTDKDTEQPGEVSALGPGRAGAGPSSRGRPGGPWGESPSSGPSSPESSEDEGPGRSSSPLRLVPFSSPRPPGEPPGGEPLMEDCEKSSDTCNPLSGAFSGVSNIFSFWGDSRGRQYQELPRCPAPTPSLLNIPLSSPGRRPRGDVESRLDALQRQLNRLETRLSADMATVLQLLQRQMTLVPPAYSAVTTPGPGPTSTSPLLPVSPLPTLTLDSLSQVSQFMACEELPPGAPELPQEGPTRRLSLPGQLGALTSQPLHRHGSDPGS
Turning to `CC(C)CNS(=O)(=O)c1ccc(CCC(=O)NCc2cccnc2)cc1`, the “hERG current change (%, negative = inhibition) at 10uM” value is on record as -8.2%. Next, `COc1ccc(CC(=O)Nc2c(C(=O)N3CCN(c4ncccn4)CC3)oc3ccccc23)cc1`: -63.7%; `CCn1c2ccccc2c2nn(C)c(=N)nc21`: -46.6%. In the case of `CCc1nnc(NC(=O)CCN(c2ccc(C)cc2)S(=O)(=O)c2ccccc2)s1` it was 13.2%; in that of `CCC1CCCCN1S(=O)(=O)c1ccc(C(=O)N(CCCN(C)C)c2nc3cc4c(cc3s2)OCO4)cc1.Cl` (stereo not drawn), -56%. In the case of `COc1ccc(OC)c(NC(=O)c2cnc(Nc3ccccc3OC)c3ccccc23)c1` it was -7.53%. Take `Cc1c(C(=O)NC(C)c2ccncc2)oc2ccccc12` (stereo not drawn): the “hERG current change (%, negative = inhibition) at 10uM” value is listed as -29.7%. In the case of `COc1ccc(Cl)cc1NC(=O)CN(C)C(=O)C12CC3CC(CC(Cl)(C3)C1)C2` it was -29.1%. In the case of `CN(C)CCNC(=O)c1ccc(CS(=O)(=O)c2ccc(Br)cc2)o1` it was -3.14%. In the case of `FC(F)(F)c1ccc2c(c1)nnn2C1CCN(Cc2nnnn2Cc2ccccc2)CC1` it was -50.9%; in that of `Brc1ccc2c(c1)CN1CCCC1=N2`, -14.2%. With `CSc1ccccc1NC(=O)Cc1ccc(Br)cc1`, the “hERG current change (%, negative = inhibition) at 10uM” value was -10.2%. Next, `CC1CC(=O)NN=C1c1cccs1` (stereo not drawn): 6.17%. Next, `CCc1ccc(C(C)NC(=O)C2(C)CC2(Br)Br)cc1` (stereo not drawn): -9.54%; `COc1ccccc1Nc1ccc(NC(=O)c2cccc([N+](=O)[O-])c2C)cc1`: 14.4%; `CCCCN1CCc2c([nH]c3c(C)cccc23)C1=O`: -7.88%. Next, `COc1ccc(CCn2c(O)c(/C=N/N3CCCCC3)c(=O)[nH]c2=O)cc1OC`: 0.059%; `COc1ccccc1N1CCN(CC(=O)N2N=CCC2c2ccccc2)CC1` (stereo not drawn): -16.6%; `Cc1ccc2c(c1)N(C(=O)CCC(=O)NCC(C)c1ccccc1)CC(C)O2` (stereo not drawn): -29.1%. Turning to `CCN1C(=Nc2ccc(Cl)cc2)SC/C1=C\C(=O)OC`, the “hERG current change (%, negative = inhibition) at 10uM” value was found to be 7.99%.

Turning to `Cc1cccc(N2CCN(C(=O)c3c(-c4ccccc4)noc3C)CC2)c1C`, the “hERG current change (%, negative = inhibition) at 10uM” value is listed as -9.6%. Consider `COc1cc2c(cc1NC(=O)CSc1ccccc1)oc1ccccc12`, for which the “hERG current change (%, negative = inhibition) at 10uM” value came out at 13.6%. Regarding `COc1ccc(N(CC(O)CN2CCOCC2)S(=O)(=O)c2ccc(C)cc2)cc1` (stereo not drawn), the “hERG current change (%, negative = inhibition) at 10uM” value is given as -45.2%.

Regarding `CCc1ccc(OCCOCC(O)CN2CCN(Cc3ccc(Cl)cc3)CC2)cc1.Cl` (stereo not drawn), the “hERG current change (%, negative = inhibition) at 10uM” value is listed as -73.5%.
